This is one part of the list.
The compounds below were run on S. aureus RN4220 (assay: growth inhibition call (relative growth <= 0.2)). Settings: 50 µM.

Growth inhibition call, inactive:
C[C@@H]1CN([C@@H](C)CO)C(=O)c2cc(NC(=O)Cc3ccccc3)ccc2O[C@@H](C)CCCCO[C@H]1CN(C)C(=O)Nc1cccc2ccccc12
O=C(O)C1(O)CC(O)C(O)C(O)C1 (stereo not given)
COc1ccccc1C#Cc1cnc2c(c1)C(=O)N([C@@H](C)CO)C[C@H](C)[C@H](CN(C)C(=O)c1ccc3c(c1)OCO3)O2
COCCOC(=O)N1C(=O)[C@@]2(c3cc(C#CC4=CCCCC4)ccc31)[C@H](c1ccc(O)cc1)N1[C@H](c3ccccc3)[C@H](c3ccccc3)OC(=O)[C@H]1[C@@H]2C(=O)N1CCN(c2ncccn2)CC1
NC(=O)[C@@H]1C(=O)C[C@@H]2C[C@@H]3Cc4cccc(O)c4C(=O)[C@@H]3C(=O)[C@]2(O)C1=O
Cc1noc(C)c1S(=O)(=O)Nc1ccc2c(c1)CC(=O)N([C@@H](C)CO)C[C@@H](C)[C@H](CN(C)S(=O)(=O)c1ccccc1)O2
COc1ccccc1-c1ccc2c(c1)O[C@@H](CN(C)CC1CCOCC1)[C@@H](C)CN([C@H](C)CO)S2(=O)=O
C[C@@H]1CN([C@@H](C)CO)C(=O)Cc2cc(NC(=O)Nc3ccc(F)cc3)ccc2O[C@H]1CN(C)Cc1ccc(Cl)c(Cl)c1
O=C1CCCCCN1
O=C(C[C@H]1C[C@H]2c3cc(NS(=O)(=O)c4ccc(F)cc4)ccc3O[C@H]2[C@@H](CO)O1)NCc1ccccn1
CCc1c(C(=O)OC)nnc2cc(C)nn12
C[C@@H]1CN([C@@H](C)CO)C(=O)c2cccc(NC(=O)C3CC3)c2O[C@H]1CN(C)C(=O)Nc1ccc2c(c1)OCO2
CO[C@H]1CN(C)C(=O)c2cc(NS(C)(=O)=O)ccc2OC[C@H](C)N(C(=O)c2ccc3c(c2)OCO3)C[C@@H]1C
CC=CCC(C)C(O)C1C(=O)NC(CC)C(=O)N(C)CC(=O)N(C)C(CC(C)C)C(=O)NC(C(C)C)C(=O)N(C)C(CC(C)C)C(=O)NC(C)C(=O)NC(C)C(=O)N(C)C(CC(C)C)C(=O)N(C)C(CC(C)C)C(=O)N(C)C(C(C)C)C(=O)N1C (stereo not given)
CCCC(=O)Nc1ccc2c(c1)OC[C@H](C)N(S(=O)(=O)c1cn(C)cn1)C[C@H](C)[C@@H](OC)CN(C)C2=O
C[C@H](CO)N1C[C@H](C)[C@@H](CN(C)C(=O)Nc2ccc3c(c2)OCO3)OCCCC[C@H](C)Oc2ccc(NS(=O)(=O)c3ccccc3)cc2C1=O
CCCNC(=O)N1C[C@]2(CCN(CC2)S(=O)(=O)c2cccc(c2)OC)c2c(n(c3cc(ccc23)OC)C)[C@H]1CO
C[C@H]1CCCCO[C@H](CN(C)S(=O)(=O)c2cccs2)[C@@H](C)CN([C@@H](C)CO)C(=O)c2cc(NC(=O)Cc3ccccc3)ccc2O1
C[C@H](CO)N1C[C@H](C)[C@@H](CN(C)S(C)(=O)=O)Oc2ccc(NC(=O)Cc3cn(C)c4ccccc34)cc2CC1=O
Nc1ccn([C@@H]2O[C@H](CO)[C@@H](O)[C@@H]2O)c(=O)n1
COc1ccc(S(=O)(=O)N(C)C[C@@H]2OCCCC[C@H](C)Oc3ccc(NC(=O)Nc4ccc5c(c4)OCO5)cc3C(=O)N([C@H](C)CO)C[C@@H]2C)cc1
NCCCN1CCCN(CCCN)CC1
C[C@@H]1CN([C@@H](C)CO)C(=O)c2cccc(NC(=O)Nc3ccc4c(c3)OCO4)c2O[C@@H]1CN(C)Cc1ccc(C(F)(F)F)cc1
C[C@@H]1CCCCO[C@@H](CN(C)C(=O)Nc2cccc3ccccc23)[C@@H](C)CN([C@H](C)CO)C(=O)c2cc(NC(=O)Nc3ccc(F)cc3)ccc2O1
C[C@@H]1CN([C@@H](C)CO)C(=O)c2ccccc2-c2ccccc2CO[C@@H]1CN(C)S(=O)(=O)c1ccc(C(F)(F)F)cc1
C[N+](C)(C)CCCCNC(=O)[C@H]1C[C@H]2C(=O)N[C@@H](Cc3ccccc3)C(=O)N2[C@H]1c1cccc(OCCO)c1
C[C@@H]1CN([C@H](C)CO)C(=O)c2cc(NC(=O)Nc3cccc4ccccc34)ccc2O[C@@H](C)CCCCO[C@H]1CN(C)C(=O)C1CCCCC1
C[C@H](CO)N1C[C@H](C)[C@@H](CN(C)C(=O)Nc2ccc(F)cc2)Oc2ccc(NS(=O)(=O)c3cn(C)cn3)cc2CC1=O
CS(=O)(=O)CCCCN=C=S
CC(C)N1C[C@H](C)[C@@H](CN(C)Cc2ccc(Cl)cc2)Oc2c(C(=O)Nc3ccncc3)cccc2C1=O
Cc1cc(C)nc(SCC(=O)NN)n1
COc1ccc(S(=O)(=O)N(C)C[C@H]2Oc3ncc(-c4ccncc4)cc3C(=O)N([C@H](C)CO)C[C@H]2C)cc1
CC(C)NC(=O)N(C)C[C@@H]1OCCCC[C@H](C)Oc2ccc(NC(=O)Nc3ccccc3)cc2C(=O)N([C@H](C)CO)C[C@@H]1C
C[C@@H]1CN([C@H](C)CO)C(=O)Cc2cc(NC(=O)Nc3cccc4ccccc34)ccc2O[C@@H]1CN(C)S(=O)(=O)c1ccc(F)cc1
Cl.Cl.Cl.NCCCCNCCCN
CN1C(=O)[C@H]2CN(C)c3ccccc3[C@H]2C1=O
O=C(C[C@@H]1CC[C@@H]2[C@H](COC[C@H](O)CN2S(=O)(=O)c2ccc(F)cc2)O1)N[C@H]1CCN(Cc2ccccc2)C1
C[C@H]1CCCCO[C@H](CN(C)C(=O)Nc2cccc3ccccc23)[C@@H](C)CN([C@@H](C)CO)C(=O)c2cc(NS(=O)(=O)c3ccc(Cl)cc3)ccc2O1
CC(=O)NCC(=O)N1C[C@H](N(C)Cc2cncnc2)[C@@H]2OCCC[C@@H]21
C[C@@H]1CCCCO[C@@H](CN(C)C(=O)NC2CCCCC2)[C@H](C)CN([C@H](C)CO)C(=O)c2cc(NC(=O)CCC(F)(F)F)ccc2O1
